In all, about 33,000 sequences were measured (“E-score (-0.5 to 0.5)”: median about -0.036, highest 2% from about 0.37 on). The list shows a part of the results.
target: T1, Yer064c (UniProt P40041); assay: PBM E-score (8-mer binding enrichment) (E-score (-0.5 to 0.5)); higher = stronger / more preferred TF binding; most listed sequences are background and not binding sites; conditions: protein concentration: 200 nM; construct: GST-full length
T1 sequence: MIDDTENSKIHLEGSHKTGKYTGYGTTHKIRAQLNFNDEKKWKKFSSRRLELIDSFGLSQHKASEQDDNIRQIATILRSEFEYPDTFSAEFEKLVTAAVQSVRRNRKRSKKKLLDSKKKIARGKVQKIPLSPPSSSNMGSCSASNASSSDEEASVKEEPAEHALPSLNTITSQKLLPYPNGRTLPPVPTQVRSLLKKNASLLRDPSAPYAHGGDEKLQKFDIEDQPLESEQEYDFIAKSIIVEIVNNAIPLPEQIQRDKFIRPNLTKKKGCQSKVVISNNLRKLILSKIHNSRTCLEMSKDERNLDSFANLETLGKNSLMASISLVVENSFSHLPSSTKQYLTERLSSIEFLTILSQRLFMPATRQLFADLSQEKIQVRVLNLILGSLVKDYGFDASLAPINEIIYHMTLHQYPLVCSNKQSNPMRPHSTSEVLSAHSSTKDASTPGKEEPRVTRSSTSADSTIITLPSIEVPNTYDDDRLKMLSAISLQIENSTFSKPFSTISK
Procedure: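 Universal 'all 10-mer' protein binding microarrays (Agilent AMADID 015681) probed with GST-tagged S. cerevisiae TFs (full-length or DBD) made by in vitro transcription/translation (PURExpress), about 100-200 nM. Bound TF was detected with fluorescent anti-GST. Each ungapped 8-mer (which stands for itself and its reverse complement) is scored by the PBM enrichment score (E-score), a modified Wilcoxon-Mann-Whitney statistic from -0.5 to +0.5, computed with the Universal PBM Analysis Suite. Scale: above 0.35 generally sequence-specific binding.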

Row | Sequence | PBM E-score
1 | CATTCGGG | -0.0821
2 | ATTGGAGG | -0.0627
3 | AATTTATA | 0.112
4 | CATGAAGG | -0.0626
5 | ACTAGCTC | 0.0817
6 | CCGTCTCA | 0.0264
7 | GCGCGTCA | -0.182
8 | GCATCCAA | -0.209
9 | ATGCGACC | -0.133
10 | CGACTACC | 0.383
11 | ATGGTTAA | 0.391
12 | CTTGTTAC | -0.00573
13 | AAGGCCTT | -0.275
14 | AGGGTACG | -0.111
15 | ATCCTAGA | 0.0286
16 | ACAGTAGA | -0.0588
17 | CAGTAGGG | -0.254
18 | AGTGTGAC | 0.303
19 | ACGTCCCC | -0.118
20 | ATAGTCGG | 0.256
21 | GGCGCGGA | -0.248
22 | CAGTGCGA | -0.027
23 | CCGAAGCC | -0.256
24 | AGCTGATG | -0.03
25 | CCGGACTC | 0.327

Row | Sequence | PBM E-score
26 | GCCCAACA | -0.253
27 | AATTAGTC | 0.446
28 | AATCCCCT | -0.161
29 | CAGTACAG | 0.0776
30 | CAGGCTTC | -0.252
31 | ACTGGTCA | 0.036
32 | GATTATAA | 0.216
33 | AGCGGTAC | -0.216
34 | AAAGGATA | 0.0278
35 | ATTGAGAG | 0.0906
36 | AAGGGCAT | -0.0533
37 | GTCTCAAC | 0.216
38 | AATCACAA | 0.362
39 | AGTCCGAT | 0.253
40 | CGGCTCAC | 0.0907
41 | AATGGAAA | -0.17
42 | CGCGAGCC | 0.0358
43 | CCGGGGAA | -0.183
44 | GCAGAGAA | 0.0496
45 | GCCGGTCC | -0.223
46 | CCGCCGGA | -0.102
47 | GATTGTCC | 0.0122
48 | GCTCACGA | 0.121
49 | ATGCGTGA | 0.223
50 | ATGCTGTC | 0.00336

Row | Sequence | PBM E-score
51 | AACCAAGC | -0.0715
52 | ACAGTTAC | -0.0542
53 | AACCACGC | -0.021
54 | ACAATATC | -0.0473
55 | CGGTCGGA | -0.0918
56 | CTATGGTA | 0.0675
57 | GACCATAA | 0.126
58 | AGTGCGTC | -0.262
59 | CGCGTACA | -0.104
60 | TAAAGGAA | -0.116
61 | CGTAGACC | -0.202
62 | AGCGTTCG | -0.0236
63 | ATAGGGCG | -0.0626
64 | ATAAGCCA | -0.052
65 | ACAGGTGG | -0.12
66 | CGCCCACA | -0.0939
67 | ATGCTACA | -0.139
68 | AAGGTAGC | -0.239
69 | CCTGCACG | -0.0255
70 | CGTAAGAA | -0.222
71 | CTATTGAC | 0.22
72 | AGAGCTGC | -0.279
73 | GATAATCC | -0.0741
74 | AGTATAGC | -0.206
75 | AAGTCCCT | -0.127

Row | Sequence | PBM E-score
76 | GGAGAAGA | -0.193
77 | TCCCCTCA | 0.169
78 | CTTTGCTA | -0.0667
79 | CGCCGTAA | -0.287
80 | GCGTTTAC | -0.206
81 | CTGCTCGA | -0.128
82 | AAACTCGA | 0.0424
83 | AGGTCCAG | -0.123
84 | CAGAAGAC | 0.105
85 | CGCGTGCC | -0.108
86 | ACCATATG | 0.0653
87 | TAGCCCCA | -0.0191
88 | ACACATGG | 0.0925
89 | GTGAGGCA | -0.122
90 | CTAAGGAA | 0.012
91 | CCCCCTCC | -0.28
92 | ATGTGCCC | -0.177
93 | GAGAACGC | -0.14
94 | CCTGAGTC | 0.461
95 | ATTTGGTG | -0.0429
96 | ATTCCGTA | 0.0612
97 | ATCACCGG | 0.24
98 | ACCATGTA | 0.0651
99 | GCTTAAAC | 0.06
100 | CCGCATAG | -0.129

Row | Sequence | PBM E-score
101 | CTCGCCAA | -0.0752
102 | CATTACTC | 0.179
103 | AGGAGCAG | -0.286
104 | AAACCATT | 0.157
105 | GTAATGAA | 0.0372
106 | ACGCACCC | -0.201
107 | CTACGTTC | -0.111
108 | CTCTGTAC | -0.146
109 | ATCAGAAT | 0.165
110 | GAACGCTC | -0.298
111 | AGCCCGCC | -0.231
112 | AGCAATCA | 0.318
113 | ATATGACC | 0.0605
114 | CTTCATGA | 0.23
115 | CAGCATGG | 0.00278
116 | GAAGCCCC | -0.368
117 | GAAATACC | -0.158
118 | AGGAGAGG | -0.324
119 | AGGCAGGG | -0.162
120 | ATAGGAAT | 0.141
121 | CAGCGAGC | -0.15
122 | ACTAACGA | 0.315
123 | CGTCGTGA | 0.0738
124 | GCCCCGCC | -0.164
125 | CCTTCATA | -0.0285

Row | Sequence | PBM E-score
126 | AGGGGACT | 0.234
127 | ACCTTTGG | -0.175
128 | GAGTTAGC | 0.0703
129 | GTGCGCAA | -0.00229
130 | CGAACGCG | -0.0743
131 | TCCCTCGA | -0.0167
132 | CGTTTCGC | -0.125
133 | GCAACTAA | 0.0789
134 | GTCGTCTA | 0.0967
135 | AGTAAACA | 0.0961
136 | CAAGAAGC | -0.0192
137 | AGGCCTCA | -0.142
138 | CACCCGGA | -0.0433
139 | CCCCGGAC | -0.237
140 | CAACGGAG | -0.224
141 | CCACTCAG | 0.0632
142 | CTTACAGC | -0.0346
143 | ATCGCCCC | -0.0169
144 | CTTACTAC | -0.0948
145 | GGAGGGAC | -0.271
146 | CAGGACTG | 0.221
147 | ACTAGTGC | 0.0675
148 | ACACTAAC | -0.00977
149 | CACACCCA | 0.0764
150 | ATTTTTGG | -0.0135

Row | Sequence | PBM E-score
151 | CGATAGAC | 0.00233
152 | GTCTCCAA | 0.022
153 | CCTCCTAC | -0.238
154 | GTACTAAA | 0.121
155 | CCGACGTA | -0.198
156 | AGTGCACA | -0.0839
157 | AATATGGC | -0.2
158 | AGCCTGTC | 0.0571
159 | CAAAATGC | -0.0258
160 | GCTATGTA | 0.0249
161 | CCATGAGA | 0.0159
162 | AGGGTTAT | -0.249
163 | ATCAGTGG | 0.0632
164 | GTGGGATA | -0.175
165 | ACATTGGG | -0.276
166 | ACCAGGCA | -0.0182
167 | TACTTAGA | 0.167
168 | ATTCTACA | -0.0249
169 | AGAGGGCC | -0.18
170 | AAATTGGG | -0.172
171 | CTAACGCC | -0.163
172 | AGCTCTCC | -0.204
173 | ACGAATCC | 0.171
174 | CTTTTATA | 0.0172
175 | TACAACCA | 0.119

Row | Sequence | PBM E-score
176 | CCTTACAG | -0.2
177 | CCGCAGTC | 0.285
178 | TTGATCAA | 0.139
179 | ACGGACGA | 0.0598
180 | GTTGCGGA | -0.00464
181 | CCAAGCCC | -0.159
182 | CAGTAACA | 0.0175
183 | AGCATCTG | -0.161
184 | ATGTTTTA | 0.108
185 | TAACCTGA | 0.163
186 | AGAGAGCC | -0.112
187 | ACGCGCTG | -0.172
188 | CCACGGTA | -0.0324
189 | GTCACCAA | 0.185
190 | AATGGGGA | -0.288
191 | TGGGGGAA | -0.297
192 | GACACAAC | -0.0181
193 | AAACAGTA | 0.0327
194 | GCATATGA | 0.14
195 | CGAGCCTA | -0.0877
196 | AATGGGCG | -0.0714
197 | AAGAGTTA | 0.0692
198 | CCTTTAGC | -0.151
199 | CATACCGC | 0.0449
200 | GCCTCCAC | -0.152

Row | Sequence | PBM E-score
201 | AGCTCGTG | 0.00468
202 | AAACGTTT | -0.0703
203 | CTGCACGA | 0.0475
204 | ACCGATCC | -0.111
205 | GAGGAGAC | 0.104
206 | CTGTGCCC | -0.173
207 | AGTGTTCA | 0.0418
208 | ACCCGTCC | -0.0651
209 | GAAACCAA | -0.059
210 | ACGTGCTG | -0.265
211 | AAGCGCGC | -0.0597
212 | TCCGGGCA | -0.08
213 | CCGAGTTC | -0.0795
214 | TCCTAGAA | -0.119
215 | ATAGGGCC | -0.379
216 | CGATACGC | -0.217
217 | CCTCGATC | -0.197
218 | CACCAATC | -0.0186
219 | CTGGCAGA | -0.00993

Source: the supplement of paper PMC3334620
